Measured values: the supplement of paper PMC12217912
Some of the results follow. Sequences were assembled here from the parent chain. Inactive controls read about 0.05.

B1: TEV protease; numbered along this chain (parent)
chain: MGESLFKGPRDYNPISSSICHLTNESDGHTTSLYGIGFGPFIITNKHLFRRNNGTLVVQSLHGVFKVKDTTTLQQHLVDGRDMIIIRMPKDFPPFPQKLKFREPQREERICLVTTNFQTKSMSSMVSDTSCTFPSGDGIFWKHWIQTKDGQCGSPLVSTRDGFIVGIHSASNFTNTNNYFTSVPKNFMELLTNQEAQQWVSGWRLNADSVLWGGHKVFMVKPEEPFQPVKEATQL

Variants of: B1
Assay: raw area under fraction-flipped curve 0-4 h after induction (AUC4h, not background-subtracted), DNA-recorder readout of cleavage of the substrate (dimensionless); higher = more cleavage of the substrate by the protease variant
Conditions: temperature: 34 °C; time window: 0-4 h after rhamnose induction
Description: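 In vivo DNA recorder in E. coli TOP10(DE3) ΔrhaA at 34 °C. Each TEVp single-site mutant (parent TEVp 0) is paired with a single-site variant of the 7-mer TEVs (canonical ENLYFQ|S). The substrate sits between flexible linkers in a Bxb1-sfGFP-TEVs-SsrA fusion, so cleavage stabilises Bxb1 and speeds flipping of a recombination array, read by NGS. The value is the raw area under the fraction-flipped curve over 0-4 h after rhamnose induction (AUC4h), with ≥20 reads per time point. It is not background-subtracted; inactive controls average about 0.047.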
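Also: Bxb1 expression induced with 0.2% (w/v) L-rhamnose at OD600 near 0.5, cultures sampled hourly, flipped fraction per protease–substrate barcode pair counted by paired-end Illumina sequencing.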

| Variant | area with substrate ENAYFQS | area with substrate ENDYFQS | area with substrate ENEYFQS | area with substrate ENFYFQS | area with substrate ENGYFQS | area with substrate ENHYFQS | area with substrate ENKYFQS | area with substrate ENMYFQS | area with substrate ENQYFQS | area with substrate ENRYFQS | area with substrate ENSYFQS | area with substrate ENVYFQS | area with substrate ENWYFQS | area with substrate ENYYFQS | area with substrate ENCYFQS | area with substrate ENIYFQS | area with substrate ENPYFQS | area with substrate ENTYFQS | area with substrate ENNYFQS |
| --- | --- | --- | --- | --- | --- | --- | --- | --- | --- | --- | --- | --- | --- | --- | --- | --- | --- | --- | --- |
| P14M | 0.0565 | 0.0588 | 0.032 | 0.0733 | 0.0668 | 0.0612 | 0.0571 | 0.0887 | 0.0655 | 0.0608 | 0.0632 | 0.072 | 0.0542 | 0.0582 |  |  |  |  |  |
| D11V | 0.0676 | 0.0528 | 0.0669 | 0.0673 | 0.065 | 0.0579 | 0.0441 | 0.074 | 0.0652 | 0.0692 | 0.063 | 0.0754 | 0.0444 | 0.0531 | 0.062 | 0.0811 | 0.0722 | 0.0663 |  |
| K7D | 0.069 | 0.068 | 0.0739 |  |  | 0.0546 |  | 0.0738 | 0.0648 |  | 0.063 | 0.0563 | 0.0655 |  |  |  | 0.0602 | 0.0594 |  |
| P9F | 0.0716 |  | 0.0433 | 0.0416 |  | 0.0666 | 0.0632 | 0.0542 | 0.0639 | 0.0642 | 0.0555 | 0.0729 |  | 0.0882 | 0.0676 |  | 0.07 | 0.0633 | 0.0583 |
| P9L | 0.0766 |  | 0.0681 | 0.0464 | 0.0502 |  | 0.0585 | 0.0792 | 0.0525 | 0.0848 | 0.0599 | 0.0887 |  |  |  | 0.134 | 0.0669 |  | 0.059 |
| I19P | 0.0442 | 0.0442 | 0.0514 | 0.047 | 0.0409 | 0.0402 | 0.0319 | 0.0461 | 0.0481 | 0.0476 | 0.0465 | 0.054 | 0.0301 | 0.0437 | 0.0426 |  | 0.0343 | 0.0569 | 0.0384 |
| I19K | 0.0543 | 0.034 | 0.0541 |  |  | 0.0563 | 0.0624 |  | 0.0519 | 0.0489 | 0.0409 |  |  |  | 0.0425 | 0.0544 | 0.0488 | 0.0491 | 0.0355 |
| S18A | 0.064 | 0.0769 | 0.0669 | 0.0564 |  | 0.06 |  |  | 0.0558 | 0.0565 | 0.0479 | 0.0935 |  | 0.047 |  |  | 0.0655 | 0.0475 | 0.058 |
| S17A | 0.0441 | 0.0544 | 0.0529 | 0.0688 | 0.075 | 0.051 |  | 0.0878 | 0.0628 |  |  |  | 0.0535 | 0.0575 |  |  | 0.0117 | 0.0593 | 0.0508 |
| I15Q | 0.0686 | 0.0704 |  | 0.0532 |  | 0.0713 | 0.0622 | 0.0589 | 0.0488 | 0.0569 | 0.066 | 0.0687 |  | 0.0539 | 0.0852 | 0.112 | 0.0716 | 0.055 | 0.0617 |
| I15E | 0.0625 | 0.0567 | 0.0528 | 0.0551 | 0.0659 | 0.0661 | 0.0519 | 0.0555 | 0.0404 | 0.0593 | 0.0569 | 0.0615 | 0.0435 |  | 0.0543 |  | 0.0577 | 0.0595 | 0.0757 |
| I15D | 0.0492 | 0.047 | 0.0442 | 0.0546 | 0.0514 | 0.0436 |  | 0.0633 | 0.0558 | 0.0474 | 0.0527 | 0.0551 | 0.0975 | 0.0409 | 0.0434 | 0.0833 | 0.0545 | 0.0473 | 0.0488 |
